# In article PMC5892938:
# The other results are listed elsewhere or left out. The exact form of the protein is not confirmed.
# Target: GST-SBP-ILF3 (Homo sapiens) (UniProt Q12906)
# Assay: targeted RNA Bind-n-Seq
# Settings: RBNS binding buffer: 25 mM Tris pH 7.5, 150 mM KCl, 3 mM MgCl2, 0.1% Tween, 0.5 mg/mL BSA, 1 mM DTT; 27 nM protein, 750 pM RNA pool; temperature not stated; high values mean tight binding; sequences stand for … in GGGUAAAAGCGAGGUGAA…CGGGACAAGUAUUAUGGG
row,Sequence,binding signal (log2 fold change)
1,UUUUUUUUUUGAGACGGGGUCUGUCUCCUA [tttttgagapaired],0.813
2,GUGUGUGGUGUUGGCUCCUAACACCAUACG [gtspaired],-0.672
3,UUUUUUUUUUGAGACCGCAGCGGUCUCCGG [tttttgagapaired],0.947
4,GUGUGUUGUGUUGGUCUCUAACACAGCACA [gtspaired],-0.604
5,UUUUUUUUUUGAGACUGUAGCAGUUUCCGG [tttttgagapaired],0.862
6,GUUGGUGGUGUUGGCACCUAACACCGCCAA [gtspaired],-0.58
7,UUUUUUUUUUGAGACCGGCACGGUCUCCGG [tttttgagapaired],0.678
8,UUCUCUUCUCCUCCGUGGGAGGGGAAGGGA [ctspaired],-0.42
9,GUUGUGUGUGUUGGUGUCUAACACACGCGA [gtspaired],-0.441
10,GUGGUGUGUGUUGGAUCCUAACACAUACCG [gtspaired],-0.609
11,UUUUUUUUUUGAGAUGGAAGCCAUCUCCGG [tttttgagapaired],0.085
12,GUGUUGUGUGUUGGUGCCUAACACACAACG [gtspaired],-0.397
13,UUUUUUUUUUGAGACGGAGUCCGUCUUCUA [tttttgagapaired],0.368
14,GUUGUGUGUGUUGGUGCCUAACACACACAG [gtspaired],-0.374
15,UUUUUUUUUUGAGAACGAUCCGUUCUCCGG [tttttgagapaired],0.0793
16,UUCCUUCUUCCUCCAUGGGAGGGAGAGGGA [ctspaired],-0.823
17,UUUUUUUUUUGAGAUGGGGACUAUCUCCUA [tttttgagapaired],0.496
18,UUUUUUUUUUGAGACGGAGGCCGUUUCCUG [tttttgagapaired],0.66
19,UUUUUUUUUUGAGAGCGAUACGCUCUCCUA [tttttgagapaired],-0.0853
20,UUUUUUUUUUGAGAGCGGGGCGCUCUCCUG [tttttgagapaired],0.398
21,UUUUUUUUUUGAGACUGUGUCAGUUUCCUA [tttttgagapaired],0.643
22,UUUUUUUUUUGAGACCGAGGCGGUCUCCUG [tttttgagapaired],0.45

row,Sequence,binding signal (log2 fold change)
1,UUUUUUUUUUGAGAGCGAGUCGCUCUCCAG [tttttgagapaired],0.51
2,UUCUUCUCUCCUCCGAGGGAGGGGGGAAGA [ctspaired],0.00065
3,UUUUUUUUUUGAGACUGAAGCAGUUUCCAG [tttttgagapaired],0.472
4,GUGUGUGGUGUUGGACCCUAACACCACGCG [gtspaired],-0.517
5,UUUUUUUUUUGAGAGGGGUCCCCUCUCCGG [tttttgagapaired],0.949
6,UUUUUUUUUUGAGAUGGUGUCCGUCUCCAG [tttttgagapaired],1.02
7,UUUUUUUUUUGAGAUGGAUGCCAUCUCCUA [tttttgagapaired],0.161
8,UUUUUUUUUUGAGAACGACACGUUCUCCAG [tttttgagapaired],0.0481
9,UUUUUUUUUUGAGAGCGUUGCGCUCUCCGG [tttttgagapaired],0.447
10,UUUUUUUUUUGAGACGGCGUCCGUCUUCUG [tttttgagapaired],0.908
11,UUUUUUUUUUGAGAACGGAACGUUCUUCUA [tttttgagapaired],-0.285
12,GGUUGUGGUGUUGGCACCUAACACCGCGAC [gtspaired],-0.527
13,GUGUGGUGUGUUGGAACCUAACACAUCACA [gtspaired],-0.5
14,GUGGUGUGUGUUGGACCCUAACACACACCG [gtspaired],-0.0218
15,GUGUGGUGUGUUGGAGUCUAACACAUCACA [gtspaired],-0.728
16,UUUUUUUUUUGAGACGGGGGCCGUCUCCGG [tttttgagapaired],0.807
17,UUUUUUUUUUGAGAAGGGGUCCUUCUCCUA [tttttgagapaired],0.163
18,GGUGUUGGUGUUGGCUUCUAACACCAGCGC [gtspaired],-0.735
19,GGUGUUGGUGUUGGACCCUAACACCGAUAC [gtspaired],-0.512
20,UUUUUUUUUUGAGAUGGAAACCAUUUCCGG [tttttgagapaired],0.249
21,UUUUUUUUUUGAGAGGGUAGCCCUCUCCGG [tttttgagapaired],0.671
22,UUUUUUUUUUGAGAAGGAAUCCUUCUCCGG [tttttgagapaired],-0.488

row,Sequence,binding signal (log2 fold change)
1,UUUUUUUUUUGAGACUGUAGCAGUCUCCUA [tttttgagapaired],0.538
2,UUUUUUUUUUGAGACGGAGACUGUCUCCAG [tttttgagapaired],1.01
3,GUGUGUGGUGUUGGAGUCUAACACCGCACG [gtspaired],-0.546
4,UUUUUUUUUUGAGAUGGGGUCCAUUUCCUA [tttttgagapaired],0.612
5,GUGUUGUGUGUUGGAACCUAACACACAGCA [gtspaired],-0.516
6,UUUUUUUUUUGAGACCGUAUCGGUCUCCAG [tttttgagapaired],0.649
7,UUUUUUUUUUGAGAUCGGGGCGAUCUUCUG [tttttgagapaired],0.492
8,GUUGGUGGUGUUGGUCCCUAACACCGCCAA [gtspaired],-0.0204
9,UUUUUUUUUUGAGAUGGAUCCUAUCUCCUA [tttttgagapaired],-0.129
10,UUUUUUUUUUGAGAGGGGUACCCUCUCCAG [tttttgagapaired],0.327
11,UUUUUUUUUUGAGACUGCUUCAGUCUUCUA [tttttgagapaired],0.027
12,GUGUGUGGUGUUGGAAUCUAACACCGCACG [gtspaired],-1.07
13,UUUUUUUUUUGAGACGGUUUCUGUCUCCUG [tttttgagapaired],0.532
14,UUUUUUUUUUGAGAACGAAGCGUUCUCCAG [tttttgagapaired],0.0529
15,UUUUUUUUUUGAGAGGGCCCCCCUCUCCAG [tttttgagapaired],0.896
16,UUUUUUUUUUGAGAGCGAGACGUUCUUCUA [tttttgagapaired],0.32
17,UUUUUUUUUUGAGAUGGAACCCAUCUCCAG [tttttgagapaired],0.0277
18,GUGUUGUGUGUUGGAACCUAACACACAACG [gtspaired],-0.506
19,UUUUUUUUUUGAGACCGACACGGUCUUCUG [tttttgagapaired],0.691
20,GUGUGUUGUGUUGGAAUCUAACACAACGCG [gtspaired],-0.922
21,UUUUUUUUUUGAGAUGGAAUCUAUCUCCUA [tttttgagapaired],-0.135
